# In the supplement of paper PMC11417369:
# ± gives the standard deviation of the averaged measurements. The list shows a part of the results.
# System: PfAP2-LT AP2 domain (GST-tagged)
# Assay: gcPBM binding intensity (ln(normalized median fluorescence intensity)); higher = stronger DNA binding
# Summary of the method: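 For binding intensity, the highest Masliner-normalised natural-log median intensity across replicate spots of either probe orientation was taken. Protein bound to the array was stained with Alexa488 anti-GST antibody and scanned at 488 nm. The protein, GST-tagged P. falciparum DNA-binding domains from E. coli at about 25 μg on average, had been applied for 1 h to an Agilent 4 × 180k array of primer-extended double-stranded 36-bp intergenic genomic probes and negative controls.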
row,Sequence,gcPBM binding intensity (ln)
1,TTTTTTTTTTTTGAGGTGCATATATCAGATCAATAT,8.46 ± 0.45
2,AGCCACTTAAAATACACACACACCAAAAAAAAAAAA [CACACA_site5497],9.71 ± 0.49
3,TATTTTATTTATTGAAGTACATTATACAAAAATAAA [XGTACX_site4824],8.14 ± 0.32
4,AAATAAAATAAAATACGTACCTATTGTGCGTATTAA [XGTACX_site2912],8.57 ± 0.43
5,TAATAAATGTTATTAGTGCATAATAGATAATATATT,8.75 ± 0.42
6,ATTTTAACTCCCCTTAATCTATTGTATATATATATA [CACACA_negctrl_site208],8.88 ± 0.29
7,AATAATTTCCAAAAATGTACATATATTTACATATAT [XGTACX_site1790],8.81 ± 0.33
8,TATTCGAACAAAAATACATGCACATATGCATAATAA [TGCATGCA_site171],8.72 ± 0.42
9,TTTTCCAGTAAATATTTTTTTATAATATTTATATAT [CACACA_negctrl_site387],8.36 ± 0.48
10,AATGAAAAAAAAAAAAAAAAGAAGAAGCAAATGGTA [TGCATGCA_negctrl_site335],8.7 ± 0.52
11,AGATTATTTGGACATGCATGTAAAAAAATACGTATA [TGCATGCA_site972],9.14 ± 0.43
12,ATAAATAATTATATATGTACACATTATGAATGGATA [XGTACX_site8336],8.93 ± 0.38
13,TATGTGTATTTATTTGCATGTTGGTTGTATTTTTTC [TGCATGCA_site479],9.21 ± 0.45
14,TCTTCATATGTTTACTGTACGAGAAAAAAAAAAAAA [XGTACX_site6418],8.33 ± 0.4
15,TAATAAAATAAAAATTGTACATTTTATATTTATCAA [XGTACX_site5134],8.23 ± 0.46
16,ATTTCCCACTTGTGTGTGCGCATGTGTATATATTTA [GTGCAC_site9949],9.74 ± 0.3
17,TTATTTGTTTGTTGGATGCTTTTTTTTTTTTTTTTT [CACACA_negctrl_site1697],8.72 ± 0.49
18,TACATATATATAATATGTACTTATAATATGTATTTA [XGTACX_site2162],8.54 ± 0.4
19,AAAAGTGATAATAAGAGTACATAAAAAATTTATTAT [XGTACX_site8037],8.79 ± 0.47
20,TATTCTATACTATATTGTACTATAATATAATATACT [XGTACX_site797],8.82 ± 0.46
21,AAATAATTTATAAATAAATACATTGTTACTTTTTCT [GTGCAC_negctrl_site639],8.51 ± 0.45
22,ATTCAAAAAAATAAAATAAACATAAATAAACATAAA [TGCATGCA_negctrl_site390],8.62 ± 0.59

row,Sequence,gcPBM binding intensity (ln)
1,ATTTTTTTTTTTTTATGTACATATTAAAAAAAATAT [XGTACX_site1829],8.51 ± 0.41
2,GGTATTACTTTTAGCTGTACTTATTTAAAAGTCAAA [XGTACX_site530],8.58 ± 0.49
3,ATTTTTACTTTTTATGCATGCTATATTTTCAACCAT [TGCATGCA_site871],9.16 ± 0.4
4,TATACATGTTCAATTTGTACATATATAAATATATAT [XGTACX_site3554],8.72 ± 0.41
5,ATTAAGGAAAAATTATGTACACAAAAACATATAACA [XGTACX_site2901],8.98 ± 0.42
6,TCTGAAATTTTAGGGGTGCCTGGGACTAAAGAAACG [GTGCAC_site9785],8.44 ± 0.35
7,AAGAACAGATAAAATCGTACGTGAAACATGAACTTG [XGTACX_site7793],9.03 ± 0.48
8,TAGAAACCATAAAAATGTACTTAAAAATAGACAATT [XGTACX_site5007],8.78 ± 0.5
9,ATAAATTCATTATATTGTACAAACAAATGAAAAAAA [XGTACX_site8304],8.66 ± 0.54
10,TTTAATTCCCATATATGTACACAATTTCTTCTATAA [XGTACX_site1465],8.65 ± 0.58
11,AGACTTTTTATGAGCACACACATATATTATGGAGTA [CACACA_site1040],9.09 ± 0.33
12,ATACATAAATATTATTGTACATATATAATATTAATA [XGTACX_site3514],8.64 ± 0.31
13,GGAAAAAGAAATTAATGTACATGTGGATGTATGAGG [XGTACX_site5468],9.02 ± 0.48
14,AAAATTCATCCAACAAGTACATAAATATAATATTAT [XGTACX_site4596],8.79 ± 0.45
15,AAAATATTTAAGCATTGTACATATTTTTACAAATAC [XGTACX_site5349],8.68 ± 0.36
16,AGGTAGAAAAAAGACACACACATTATGTATATATAT [CACACA_site377],9.53 ± 0.38
17,TTATAGGATCAAGCGCGTACATATCTTTATAAAAGA [XGTACX_site5775],8.78 ± 0.39
18,ATATATATATATGTGTGTACATATATGTGGATGGAT [XGTACX_site6240],9.64 ± 0.2
19,AATAACAAAATATTAACACACATAACATATTATAAA [CACACA_site2803],8.97 ± 0.43
20,TTTTTTCATATAAATACATGCACACAAAAATATCAA [TGCATGCA_site602],8.74 ± 0.4
21,TAATGTTTTTTTTGTTTACCAAAAATAATACATTAT [CACACA_negctrl_site203],8.36 ± 0.38
22,ATATACAAATATATATATATATATATATATATATAT [CACACA_negctrl_site886],9.77 ± 0.042

row,Sequence,gcPBM binding intensity (ln)
1,GCAAATATGTTGATATGTACATATATATATATATAT [XGTACX_site445],9.73 ± 0.057
2,TATTTCTTTATTGGCACACATTTTTTCAATTATATA [CACACA_site4975],9.05 ± 0.39
3,ATTATTTTAATAAAACGTACAAAATATAAATCAAAA [XGTACX_site3770],8.62 ± 0.5
4,AAAAAATATACATATACACACATATGTATATATAAT [CACACA_site8676],9.02 ± 0.36
5,AGTTTATAGTGATATTGTACATATATATATATATAT [XGTACX_site572],9.52 ± 0.057
6,TTATTTTTGTTTTGAAGTACAAAAAAATATATTCTT [XGTACX_site6416],8.24 ± 0.3
7,AAAATTTATATAAGCACACAAATATATATTTATATC [CACACA_site3291],8.74 ± 0.38
8,TATTTATACTCAACTTTCTGTTATTCCAACTTTTTT [XGTACX_negctrl_site410],8.81 ± 0.52
9,TTATATATTAATAGTAGTACTATATTGAATCACCCC [XGTACX_site2868],8.88 ± 0.12
10,ACAACAAAAATAAGCACACACAAATATACATACATA [CACACA_site7664],9.71 ± 0.49
11,TTTTAAATCTTATATTCCCCACATAAATAGCTCTCT [GTGCAC_negctrl_site665],8.51 ± 0.54
12,ACATAAGAACATATTTGTACGTATATAAATTAAATA [XGTACX_site6127],8.8 ± 0.45
13,ATGGACAAAAAATATATACACACGAGGAAACCAACA [CACACA_site3726],9.41 ± 0.34
14,CGTGGGAGCAGACACACACACACACGCATATTTATA [CACACA_site6290],9.89 ± 0.45
15,TTTTGTTTTTACGAATACTTTTTTAATTTTATTTAT [TGCATGCA_negctrl_site395],8.59 ± 0.51
16,CATGCATACTACATCTGTACACATACATTATATTTA [XGTACX_site2495],9.06 ± 0.35
17,AGCATTTTAAAAGAAAAAAAAAAAAAAAAAAAAATA [GTGCAC_negctrl_site723],8.32 ± 0.47
18,ATCTATGTTCCTTTTACACACATAATCTTTTTTTTA [CACACA_site5468],9.2 ± 0.49
19,ATATATATATATTATACACACAAAAATATTTTGTAT [CACACA_site266],8.96 ± 0.39
20,ACGCAATATTAACAAGTGCATTATAACACATAACAT,8.93 ± 0.24
21,ATAACATTCTATGTTGCACACAAAGAGAAAAATTTA [CACACA_site9322],8.93 ± 0.38
22,GTAAATTATATAACAAATAAAAATGTACATATATAT [CACACA_negctrl_site408],8.88 ± 0.46

row,Sequence,gcPBM binding intensity (ln)
1,AATAAAAAGTAATAATAACGTATAATTTATTATACT [TGCATGCA_negctrl_site414],8.6 ± 0.4
2,TCTTGTTATTTAAATGCATGTTGATTTTAAAAAATT [TGCATGCA_site840],8.32 ± 0.43
3,TATACTTTATATATTTTGTATATATATTTTTTTTAT [TGCATGCA_negctrl_site530],8.8 ± 0.48
4,ATATATATAGATTGTACACACATTTATGCATATATA [CACACA_site3222],9.18 ± 0.33
5,TTTTTTTTTAGAAAAACATGCATGTCCTAAAAATAA [TGCATGCA_site684],8.26 ± 0.33
6,ATATGATAAATTATATGTACTTAAAATATATTATAA [XGTACX_site5904],8.47 ± 0.47
7,TGGCAAAATAGGCACACACACATATACATCTATATT [CACACA_site6626],9.73 ± 0.46
8,AAAAAAAAAAAAAAAAAAAAAAAAACAATGAATTTA [GTGCAC_negctrl_site698],8.82 ± 0.19
9,AGTAGATATAATTATAGTACTTTGATGTTTTCTTTA [XGTACX_site5038],8.63 ± 0.47
10,ATGTATTTATTATTTAGTACACATTATTTTCTTATA [XGTACX_site6365],8.82 ± 0.4
11,TAAACAGTATGCAACGCATGCGTTGTTATATATAAA [TGCATGCA_site232],8.99 ± 0.41
12,AAATTTTCTTTTAAGTGTACGAAATTTAGTATTTCA [XGTACX_site7819],8.54 ± 0.3
13,ATTTTTTTTTTTTTTTTTTTATTCTTAATTCATATA [CACACA_negctrl_site342],8.52 ± 0.51
14,TATATATAAATATATACACACATGAAAATAAATAAA [CACACA_site2514],8.95 ± 0.4
15,TTTTTGTTTGTTCACGACTACATTATGTCATAAATG [CACACA_negctrl_site597],8.91 ± 0.33
16,GTCATATATTATAATAGTACATAAATAATTGATGCC [XGTACX_site3567],8.97 ± 0.33
17,TTTTTCTATATTTTCTTTTATAAAATATATAATTTT [GTGCAC_negctrl_site345],8.29 ± 0.66
18,CACAGAAATAGAGATACACACACACCGATATTTATG [CACACA_site9313],9.79 ± 0.29
19,ATAGTTATTTTATAGCGTACACAATAAATATATAAA [XGTACX_site4445],8.69 ± 0.47
20,CAAATGTAGAAAATGTGTACATAAAAAAAAAAAAAA [XGTACX_site8276],8.87 ± 0.47
21,AGTCAATTTTGTGTGTCAACATTTATATAAAGAATG [TGCATGCA_negctrl_site400],8.89 ± 0.35
22,TGTGAAAATTATGGGGCATGCAATACTTTAAAAATA [TGCATGCA_site653],8.9 ± 0.52
